Read counts are not given, so values of variants with three or more changes are uncertain.
B1: CPEB3 Ribozyme (parent)
chain: UAACAGGGGGCCACAGCAGAAGCGUUCACGUCGCAGCCCCUGUCAGAUUCUGGUGAAUCUGCGAAUUCUGCUGUAUAUCUC

Variants of: B1
Experiment: self-cleavage, relative activity (ratio to wild type); higher = more cleavage; in vitro, sequencing
In short: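 After error-prone PCR and barcoding, CPEB3 ribozyme mutant libraries were transcribed with T7 RNA polymerase at 37°C for 5 hours, then given 15 min with DNase I before an EDTA stop, and they cleaved during both steps. Reverse transcription with template switching preceded Illumina sequencing. Relative activity divides a variant's cleaved/total read fraction by the unmutated ribozyme's. At least 5 reads were required per variant, and three batches were averaged.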
G8C A13G U51A gave a self-cleavage of 0.43. Work on G8C A13G U58A yielded a self-cleavage of 0.24. In the case of G8C A13U A15C A47G A64U U67C, the self-cleavage is reported as 0.06. In the case of G8C A13U A21G C23U U25C G36C, the self-cleavage is reported as 0.1. In the case of G8C A13U C23G, the self-cleavage is reported as 0.04. For G8C A13U U31C C44A, the self-cleavage was 0.17. For G8C A15G U25A C37A U60C U67C U74C, the self-cleavage was 0.12. G8C A15G U54C showed a self-cleavage of 0.27. Variant G8C A15U U58C has a self-cleavage of 0.17. With G8C A18G A28G A35G A56G the self-cleavage was 0.4. Work on G8C A18G G19C U43A U69C yielded a self-cleavage of 0.06. For G8C A18G G52U U72A, the self-cleavage was 0.05. G8C A18U G19C A20G U31C U67C U69A showed a self-cleavage of 0.23. G8C A18U U25G A28G A75G showed a self-cleavage of 0.05. For G8C A20C G36A U54A U67C U74C, the self-cleavage was 0.09. Variant G8C A20G U26C U41A G42C U54A U72A has a self-cleavage of 0.04. With G8C A20U U26C the self-cleavage was 0.19. Variant G8C A20U U48C U80G has a self-cleavage of 0.16. G8C A21G U31G U43A A57G U69C U80C gave a self-cleavage of 0. For G8C A28G A45G, the self-cleavage was 0.06. Work on G8C A28G U31C yielded a self-cleavage of 0.06. G8C A45G A47G U74C gave a self-cleavage of 0.26. With G8C A45G A75G the self-cleavage was 0.06. For G8C A45U U72A, the self-cleavage was 0.28. Work on G8C A47G U48C yielded a self-cleavage of 0.11. In the case of G8C A56G A64G U66C C71A, the self-cleavage is reported as 0.1. With G8C A56G U58C U72C the self-cleavage was 0.15. G8C A56G U60A showed a self-cleavage of 0.07. Variant G8C A64G U74C has a self-cleavage of 0.14. For G8C C11U A45U A47U U58C U60A U80C, the self-cleavage was 0.04. In the case of G8C C17G C27U A65G U72C, the self-cleavage is reported as 0.12. G8C C29U U41C U54G A56U U67C showed a self-cleavage of 0.11. G8C C32U U43C U58A showed a self-cleavage of 0.07. For G8C C34U A56G U74A, the self-cleavage was 0.2. In the case of G8C C34U U48C U51A A65G, the self-cleavage is reported as 0.05. Work on G8C C37A U72C yielded a self-cleavage of 0.5. Work on G8C C38U U58C yielded a self-cleavage of 0.22. G8C C39A U41A G42C gave a self-cleavage of 0.41. For G8C G9A A18G A57G U69A U72C, the self-cleavage was 0.07. In the case of G8C G9A A21G A28G C68G, the self-cleavage is reported as 0.04. With G8C G9A C32U the self-cleavage was 0.24. Variant G8C G22U U48C G61A has a self-cleavage of 0.05. G8C G24A C32U A57U U69A C71U U74A gave a self-cleavage of 0.03. Variant G8C G30C G46U G52U has a self-cleavage of 0.12. G8C G30C G52U gave a self-cleavage of 0.14. With G8C G33A C38A A47G U51C the self-cleavage was 0.03. G8C G33C A35G A45U A56G A57G gave a self-cleavage of 0.05. Work on G8C G52U A56U U67G yielded a self-cleavage of 0.07. For G8C U25C A35U U51C U60C U67A, the self-cleavage was 0.06. For G8C U25C U51G A77G, the self-cleavage was 0.05. Variant G8C U26A A57G has a self-cleavage of 0.12. G8C U26A U31C U48C U51C U80C gave a self-cleavage of 0.14. With G8C U26C A28G A57U U69A G73U the self-cleavage was 0.29. Variant G8C U26C A45G A56G U60A U72C G73C has a self-cleavage of 0.02. Work on G8C U26C C39U A77G yielded a self-cleavage of 0.38. Variant G8C U26C G42A U80C C81U has a self-cleavage of 0.06. G8C U26C U54C showed a self-cleavage of 0.05. Work on G8C U31A A64U yielded a self-cleavage of 0.16. G8C U41C A47G G73A gave a self-cleavage of 0.1. G8C U43A A64C A75U gave a self-cleavage of 0.04. For G8C U43G U51C, the self-cleavage was 0.32. Variant G8C U48C G73U has a self-cleavage of 0.1. For G8C U48C U74G, the self-cleavage was 0.26. With G8C U58C U72C the self-cleavage was 0.06. G8C U60C U80C showed a self-cleavage of 0.38. G8C U69A U76C gave a self-cleavage of 0.24. Variant G8C U69A U80G has a self-cleavage of 0.27. With G8C U72C A77U the self-cleavage was 0.1. Work on G8U A13G A18U C38A U49A yielded a self-cleavage of 0.24. For G8U A13G A45C A57G, the self-cleavage was 0.06. In the case of G8U A13G C17U C32G A45G, the self-cleavage is reported as 0.06. With G8U A13G C44U A45G U48C the self-cleavage was 0.06. G8U A13G U41C U51A showed a self-cleavage of 0.24. For G8U A13G U54A U58C, the self-cleavage was 0.22. Variant G8U A13G U58C has a self-cleavage of 0.05. For G8U A13U A21G U41C U54A, the self-cleavage was 0.05. Variant G8U A13U A35G U49A G73U has a self-cleavage of 0.09. G8U A13U A45G U72C gave a self-cleavage of 0.07. G8U A13U A45U U60A showed a self-cleavage of 0.08. In the case of G8U A13U C29U U41A U67A A77U, the self-cleavage is reported as 0.13. With G8U A13U G33U A57U U60A U78A the self-cleavage was 0.05. Work on G8U A13U U25C U43A A56G G61C U72C yielded a self-cleavage of 0.11. With G8U A13U U31C U51C C62G U74C the self-cleavage was 0.04. With G8U A13U U69A the self-cleavage was 0.24. With G8U A13U U72C the self-cleavage was 0.08. With G8U A15C A21U C44G A56G A65U U74G the self-cleavage was 0.04. Work on G8U A15C A56G U80G yielded a self-cleavage of 0.14. Work on G8U A15G A18C U25C U31A yielded a self-cleavage of 0.35. With G8U A15G A18G U41A U80C the self-cleavage was 0.08. For G8U A15G A20G U26C U41C A64G U67C, the self-cleavage was 0.23. Work on G8U A15G G30A G33A U43A U66C yielded a self-cleavage of 0.08. G8U A15G G46A A56G U72A gave a self-cleavage of 0.32. For G8U A15G U25C U31A, the self-cleavage was 0.22. G8U A15G U25C U31A U41A U51A U72G gave a self-cleavage of 0.03. G8U A15G U25C U31A U51C gave a self-cleavage of 0.04. Work on G8U A15G U72A yielded a self-cleavage of 0.05. Variant G8U A15U A28G U51C A75U has a self-cleavage of 0.05. For G8U A15U C39U U66G U74C, the self-cleavage was 0.09. For G8U A15U U25C, the self-cleavage was 0.16. G8U A15U U43A A45G U48C A56G showed a self-cleavage of 0.03. Variant G8U A15U U51C U72C has a self-cleavage of 0.2. Work on G8U A18C A20G U25C U41C A77G yielded a self-cleavage of 0.05. In the case of G8U A18C C23G G33A C38U A56U A64G, the self-cleavage is reported as 0.03. For G8U A18G A21U U49C U54C A56U U69C, the self-cleavage was 0.17. With G8U A18G A21U U54C U69C the self-cleavage was 0.1. In the case of G8U A18G A45U A64G, the self-cleavage is reported as 0.15. In the case of G8U A18G G63U A64G A75G, the self-cleavage is reported as 0.05. With G8U A18G U25C U72C the self-cleavage was 0.06. Variant G8U A18G U25G A28G A77G has a self-cleavage of 0.17. Variant G8U A18G U31A U43A A47U has a self-cleavage of 0.03. In the case of G8U A18G U80C, the self-cleavage is reported as 0.08. G8U A18U A20U U25C A47U showed a self-cleavage of 0.05. G8U A18U A35U G52A U78C gave a self-cleavage of 0.05. With G8U A18U G33A U49C A56U A57G U58G the self-cleavage was 0.05. In the case of G8U A18U U26C C29U U48C U69A, the self-cleavage is reported as 0.08. G8U A18U U43C A45U showed a self-cleavage of 0.06. G8U A18U U48A U60A A64U gave a self-cleavage of 0.07. In the case of G8U A18U U49A U72G C81U, the self-cleavage is reported as 0.07. In the case of G8U A18U U60C, the self-cleavage is reported as 0.12. G8U A20G A21G A56G U80C showed a self-cleavage of 0.31. G8U A20G A64G U66C A75U showed a self-cleavage of 0.05. In the case of G8U A20G C29G U48C A56G U67C, the self-cleavage is reported as 0.11. G8U A20G C34A U41A A77G U80C showed a self-cleavage of 0.03. In the case of G8U A20G U25A U31A U58C, the self-cleavage is reported as 0.06. With G8U A20G U31C U41C the self-cleavage was 0.24. G8U A20U G33C U72C showed a self-cleavage of 0.04. G8U A20U U25C A28C U74C A75U gave a self-cleavage of 0.05. G8U A20U U26A U48C U67A showed a self-cleavage of 0.05. G8U A20U U31A U41C A57G A65G U67C gave a self-cleavage of 0.03. Work on G8U A21C U49C yielded a self-cleavage of 0.04. Variant G8U A21G A28G U54A U60C C62A U74A has a self-cleavage of 0.16. G8U A21G A35G G53A gave a self-cleavage of 0.11. Variant G8U A21G A47G U67C U72A U76C has a self-cleavage of 0.03. Work on G8U A21G C23A A45U U69A yielded a self-cleavage of 0.05. For G8U A21G C23A U25G U69A, the self-cleavage was 0.05. Variant G8U A21G C23A U31A has a self-cleavage of 0.16. With G8U A21G C23A U43A U69A the self-cleavage was 0.17. Variant G8U A21G C23A U54C U67A U69A has a self-cleavage of 0.04. With G8U A21G C23A U60C U69A the self-cleavage was 0.04. G8U A21G C23A U69A gave a self-cleavage of 0.11. G8U A21G C34U U69A showed a self-cleavage of 0.06. In the case of G8U A21G C37U U54A A65C U78C, the self-cleavage is reported as 0.09. Variant G8U A21G G24U U25C U26C U58C has a self-cleavage of 0.03. Work on G8U A21G U49C yielded a self-cleavage of 0.2. G8U A21G U67C gave a self-cleavage of 0.14. G8U A21G U80C gave a self-cleavage of 0.21. Work on G8U A21U A57G yielded a self-cleavage of 0.12. G8U A21U C37A C44U U51A U58C U80A gave a self-cleavage of 0.03. Work on G8U A21U U26C U31C U51A U80C yielded a self-cleavage of 0.04. In the case of G8U A21U U66A, the self-cleavage is reported as 0.12. In the case of G8U A21U U66C, the self-cleavage is reported as 0.12. Variant G8U A21U U72A has a self-cleavage of 0.06. G8U A21U U72C showed a self-cleavage of 0.21. G8U A28G A35G A45G showed a self-cleavage of 0.11. With G8U A28G A64G U78C the self-cleavage was 0.1. In the case of G8U A28G G55A U80A, the self-cleavage is reported as 0.22. G8U A28G U43C C50U A56G gave a self-cleavage of 0.12. G8U A28G U69C gave a self-cleavage of 0.12. Variant G8U A28G U72C U80C has a self-cleavage of 0.48. G8U A28U A45G A57G U72A showed a self-cleavage of 0.05. With G8U A28U A64G A65G the self-cleavage was 0.1. In the case of G8U A35C U66A U76C, the self-cleavage is reported as 0.21. In the case of G8U A35C U67C, the self-cleavage is reported as 0.05. Variant G8U A35G A77U U80A has a self-cleavage of 0.11. Variant G8U A35G G63A A64G A65G has a self-cleavage of 0.07. G8U A35G U60C U72C U80G gave a self-cleavage of 0.07. For G8U A35G U74C U80C, the self-cleavage was 0.19.

Source: the RNAGym collection of RNA variant scans (doi:10.1093/nar/gkz1192)
